Measurements from the supplement of paper PMC4967469.
IC50 is the fitted dose that halves viability relative to control wells, and lower means more sensitive; a limit (>, <) means that the fit lies beyond the doses tested. The AUC spans the tested range (256-fold, ending at the top dose) of the same fit; the more sensitive the line, the further below 1. For some of these results: An inferred top dose was derived from the fitted curves, not read from the paper.

Assays:
Test in all cases: Viability of human cancer cell lines after 72 h of drug (GDSC screen)
piperlongumine = compound: COc1cc(/C=C/C(=O)N2CCC=CC2=O)cc(OC)c1OC [piperlongumine]; settings: top dose 10 µM
Procedure: (§1)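 Human cancer cell lines in 384-well plates, medium with 10% serum, drug for 72 h over a 256-fold dose range (nine 2-fold or five 4-fold steps up to the top dose). Adherent lines were fixed and stained with the nucleic acid dye Syto60, suspension lines read with resazurin; signal relative to control wells, capped at 0 and 100%. One two-parameter sigmoid per drug and line, fitted in a mixed model over all curves with the slope shared within a line.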

ABT-263 = compound: CC1(C)CCC(c2ccc(Cl)cc2)=C(CN2CCN(c3ccc(C(=O)NS(=O)(=O)c4ccc(N[C@H](CCN5CCOCC5)CSc5ccccc5)c(S(=O)(=O)C(F)(F)F)c4)cc3)CC2)C1 [ABT-263]; settings: top dose 2 µM; top dose inferred
Procedure: as §1

GW 441756 = compound: Cn1cc(/C=C2\C(=O)Nc3cccnc32)c2ccccc21 [GW 441756]; settings: top dose 2 µM; top dose inferred
Procedure: as §1

PIK-93 = compound: CC(=O)Nc1nc(C)c(-c2ccc(Cl)c(S(=O)(=O)NCCO)c2)s1 [PIK-93]; settings: top dose 20 µM
Procedure: as §1

Row | Cell Line | AUC (piperlongumine) | IC50 (piperlongumine) [µM] | AUC (ABT-263) | IC50 (ABT-263) [µM] | AUC (GW 441756) | IC50 (GW 441756) [µM] | AUC (PIK-93) | IC50 (PIK-93) [µM]
1 | NCI-H1341 (small cell lung carcinoma, suspension) | 0.802 | 4.08 | 0.58 | 0.2 | 0.79 | 0.748 | – | –
2 | STS-0421 (soft tissue, adherent) | 0.734 | 3.29 | 0.983 | > 2 | 0.932 | > 2 | – | –
3 | VM-CUB-1 (bladder, adherent) | 0.729 | 2.72 | 0.938 | > 2 | – | – | 0.887 | > 20
4 | PANC-10-05 (pancreas, adherent) | 0.778 | 5.28 | 0.953 | > 2 | – | – | 0.903 | > 20
5 | NUGC-3 (stomach, adherent) | 0.729 | 3.07 | 0.911 | > 2 | – | – | 0.914 | > 20
6 | TC-YIK (cervix, suspension) | 0.774 | 3.42 | 0.49 | 0.118 | 0.991 | > 2 | – | –
7 | HCC1806 (breast, adherent) | 0.77 | 3.49 | 0.913 | > 2 | – | – | 0.889 | 19.7
8 | CHP-134 (neuroblastoma, suspension) | – | – | 0.525 | 0.149 | – | – | 0.836 | 18.7
9 | KP-1N (pancreas, adherent) | 0.723 | 2.78 | 0.979 | > 2 | 0.986 | > 2 | – | –
10 | NCC010 (kidney, adherent) | 0.82 | 6.3 | 0.892 | > 2 | 0.902 | > 2 | – | –
11 | SK-MEL-28 (melanoma, adherent) | 0.779 | 4.01 | 0.928 | > 2 | – | – | 0.859 | 16
12 | MFE-319 (endometrium, adherent) | 0.826 | 5.82 | 0.884 | > 2 | – | – | 0.884 | > 20
13 | ZR-75-30 (breast, adherent) | 0.912 | > 10 | 0.967 | > 2 | 0.862 | > 2 | – | –
14 | OAW-28 (ovary, adherent) | 0.822 | 8 | 0.729 | 0.68 | – | – | 0.764 | 9.18
15 | SUP-B8 (B-cell leukaemia, suspension) | 0.837 | 6.63 | 0.916 | > 2 | 0.987 | > 2 | – | –
16 | RERF-GC-1B (stomach, adherent) | 0.81 | 6.03 | 0.893 | > 2 | – | – | 0.877 | > 20
17 | NCI-H2085 (lung adenocarcinoma, adherent) | 0.783 | 4.57 | 0.87 | > 2 | – | – | 0.828 | 13.7
18 | MKN7 (stomach, adherent) | 0.826 | 9.11 | 0.935 | > 2 | 0.981 | > 2 | – | –
19 | U031 (kidney, adherent) | 0.707 | 2.46 | 0.926 | > 2 | – | – | 0.892 | > 20
